Whole data set: some 33,000 sequences, median “E-score (-0.5 to 0.5)” near -0.054, cut for the highest 2% near 0.39. The list shows a part of the results.
target: Ylr278c (UniProt Q05854); experiment: PBM E-score (8-mer binding enrichment) (E-score (-0.5 to 0.5)); higher = stronger / more preferred TF binding; most listed sequences are background and not binding sites; settings: protein concentration: 200 nM; construct: GST-DNA-binding domain
Procedure, shortened: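 The E-score, a modified Wilcoxon-Mann-Whitney statistic, was computed by the Universal PBM Analysis Suite for every ungapped eight-base word pooled with its reverse complement. Scans behind it were normalised with masliner after bound GST-tagged yeast transcription factors were detected with fluorescent anti-GST. The proteins, at about 100-200 nM, had been applied to universal all-10-mer Agilent arrays made double-stranded by primer extension.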

Sequence	PBM E-score
ATGGAACA	-0.272
AGGGAAAC	-0.192
CCCTTAGC	-0.00214
CGTTAAAC	0.0126
CACTAAAA	0.0193
GGAAAAGA	0.112
ATTACGGA	0.336
AGGATCTA	-0.344
GGCCGCAC	0.23
GATGTAAA	0.00024
TCGTAACA	-0.0384
AATCCCGT	0.346
GCCGCGCA	0.21
ACTCAGGA	-0.0886
AAGATCGG	0.368
GCGGTAAC	0.17
AAAACGTG	-0.298
GGCCGAAA	0.254
CTCCTTGC	-0.188
AACGAAGA	-0.101
CCTATGGC	-0.118
AAACGGTC	0.107
AGAATGGG	0.00803
AACCGTTG	-0.062
CGTGGACA	0.0908

Sequence	PBM E-score
ACGGTCGA	0.0442
CGCATGCG	0.00582
ACAGGGCC	0.0175
CTAGGAAC	-0.171
CTACAGCC	-0.0762
AAAACTGC	-0.128
AAAGCCGT	0.137
CTGAATGA	-0.0114
GCACGGGC	0.059
ATCTTTTA	-0.123
ACGCGTCT	-0.172
GACGTCAA	-0.156
GCAAGTGC	-0.274
AACCCTAA	-0.0663
ATAGAAGG	-0.0667
AGCCCCTG	-0.268
AGTGCCCG	0.157
CTGCGCTC	-0.0763
AACGTAAA	0.0365
ATGATGTG	0.052
ATAGGTCC	0.0558
AGATTTTC	-0.0429
CGTCAGAC	-0.103
AACGGCGC	0.0827
CGTCCGAA	0.352

Sequence	PBM E-score
GTCTTTTA	-0.0667
CACGGCAG	-0.013
CACGAGAA	-0.147
GACCTAGC	-0.0181
GCGGTTAA	0.0177
CTCGTGAA	-0.148
CCATCGGA	0.415
GCTTTTAC	0.00897
GTGAACGA	-0.132
AGAGGCCG	-0.0387
ATATAAAA	-0.00951
CCGGCACA	0.281
ACGGTTTA	-0.121
ACTTATCT	-0.101
ATTGATGC	-0.0883
GCATAACA	-0.206
CGATCGAG	0.185
CTGAATCA	-0.19
GCATGGAC	-0.0056
CAGACCGG	0.29
CGAGACAC	-0.184
GTTGTTTA	-0.164
AGGCCAAC	-0.0929
ACTCTAGA	-0.205
ATCTTGGA	-0.214

Sequence	PBM E-score
GCGGCCGC	0.284
ACGAAGTC	-0.151
ACACTCAT	-0.126
CCCTAATC	0.0251
CATGCCCA	-0.286
ACGAAAGG	-0.0104
ATAAACGA	0.0214
CAACGACG	-0.167
AGCGTGTG	0.0373
AATTTACG	0.204
ACCAGTCG	-0.0273
AAGTCGGC	0.11
CAGAGAAA	-0.183
ATCGTGTC	0.129
GGTACGAA	-0.142
AGGCGAAT	-0.143
GCTCACAC	-0.242
GAGATGCA	-0.185
ATGCTGGG	0.0018
CAATCCCA	0.0152
ATACATGG	-0.0741
CGCTTGAA	0.111
ACGTGAGG	-0.0487
ATTAATGA	0.066
ATCAGAGG	-0.29

Sequence	PBM E-score
AAACAATC	-0.0526
AGGGGCGC	0.0408
AAGGAGCC	-0.00021
AAACTTTC	-0.0361
ACAGGCGT	-0.205
ATCTTTAA	-0.0603
ACTTATAT	-0.0207
AGGAGGAG	-0.212
CTTTGATA	-0.119
CGGTGTTC	0.324
CCATGCTC	-0.208
CTCTGTGC	-0.103
CAAAAGAA	0.0117
CAAGATTA	-0.145
CTTGTCTC	0.0729
AAAGCCCC	0.112
CAAAGCAG	-0.19
CACCTAAC	-0.0149
CTGGTTTA	-0.235
TCTCGACA	-0.00534
AGTACACA	-0.00548
GCTTTCGA	-0.111
CAACTGTA	-0.221
CCACTTCG	0.103
ATTGTTTC	0.153

Sequence	PBM E-score
ATGTCAGG	-0.0405
CCCGAGGA	0.061
CGACGCAG	0.0351
TCCCGTAA	0.103
AGAGAAAG	-0.214
AACAGCTG	-0.276
AACTGCAC	-0.0764
GCTGAAGA	-0.104
CAGCTACC	-0.2
CAATCCGG	0.393
ATTGCTCA	-0.162
ATTTGCTC	0.0683
AGATTGTG	-0.0989
AAGACAAA	-0.0701
CAGCGGAC	0.257
TAAAGGTA	-0.184
CTTTGATC	0.0241
CACTAAAG	-0.169
ATACCTCA	-0.182
ATTACAAC	-0.00851
CTGGATTC	-0.00018
ACTTCCTC	-0.0484
CAGCCCTG	-0.227
AGCTGCCA	-0.142
CAAACTAC	-0.147

Sequence	PBM E-score
GCTCCCAC	-0.101
CGTTCCGC	0.342
CGCAACAG	0.086
CCCACTTA	0.0183
CCAGATCG	-0.0308
ATTTTCAA	0.0536
ACATAGAA	-0.03
CTTAAATC	0.0232
TCAAGTAA	-0.204
GCGTTCAA	-0.169
ATAAGCCG	0.225
CTCGTTCA	-0.126
CCAGTTAC	-0.189
ATCCCAGG	0.0937
CCTAAAAA	-0.0677
TGGCAAAA	-0.053
ACAATTAT	0.0831
ATTTGTGG	-0.0517
ACCAGACT	-0.261
ACGAAGTG	-0.182
ACAGCCTA	-0.137
ATCAACTG	-0.0057
AAGAGGTC	-0.0926
GCCGTTAA	0.0207
ACATAGCG	0.0164

Sequence	PBM E-score
CTTTGCAC	-0.203
CAGGAGAC	-0.0772
GCATCCTA	-0.0856
GAAGAGCC	0.149
AGTCCGTA	0.328
CCCCTATC	-0.14
ACCGCACG	-0.155
ACTCGCAC	-0.0401
ATATAGTG	-0.0658
CCCGTCGG	0.372
GTTCACTA	-0.194
CAATTGCG	0.0389
AATGTTCC	0.0437
AGGTCATC	0.00667
GCCCCAAC	0.0493
ACCCTGAC	-0.182
ATTCGTCA	-0.189
GGATCTGA	0.00665
AGTATCTA	-0.166
CCTTAGGC	-0.27
AGTGTGCG	0.0226
ATGGTGTC	-0.134
ACGATTCC	0.0208
CAATGGGA	0.125
ATGGTATC	0.00012

Sequence	PBM E-score
GTTATTGA	-0.148
CGCCTAGA	-0.0191
CATAGGCA	-0.244
GGGAAGTA	0.00224
TCCCCGAA	0.357
GGTCCTAA	0.00859
CCGCTGTA	0.171
CGCCCACG	0.123
CAATCGCA	-0.0422
ACGACTCA	-0.168
GTCACTTA	-0.0522
ATGGGCCG	0.168
TTAATTAA	-0.226
GACGCATC	0.0416
AAGATTAT	-0.019
CCGGGTCC	0.316
TAATACAA	0.0634
GATTATTA	0.0912
AATTTAGA	-0.061
GTTGCAGA	-0.0415
TTCTACAA	-0.164
TCCCTTAA	-0.263
TAGGTATA	-0.209
AAATATGC	-0.0391
GAATGGAC	-0.102

Sequence	PBM E-score
CCGTATTA	0.211
AAATCCCA	-0.101
CCAACCGC	0.0736
GGTGGCTA	-0.2
TCCGCCCA	0.283
AGCTGTGA	-0.147
CTTTAGTA	-0.25
AGAATGAT	-0.0599
AAGTACTC	0.0456
CAATAGTA	-0.0755
AAATCCAG	-0.0486
GTTCGTAA	-0.126
GTTGTCCA	-0.237
GACCAGGC	-0.21
ACGCTTAT	-0.202
AGATTAGC	-0.109
GTGCAGAA	-0.0977
AGAGACAG	-0.071
ATAGGGTA	-0.197
GAGTCCTA	-0.145
AAGGTCAA	-0.195
AACTCCAC	0.00252
GCAGAGCA	-0.235
CTTGCGAC	-0.134
ATTTGGAA	-0.128

Sequence	PBM E-score
TAATTCCA	-0.0294
CTAGGATC	-0.0843
GCTTAACA	-0.0421
CGGCCCCA	0.0896
ATCGAGCC	-0.0378
TCGGTGCA	0.2
CTCACATA	-0.229
TAGTGGAA	0.0677
TGAAGGCA	-0.241
CATGCATA	-0.229
CGGCGATC	0.338
CCGGCAGA	0.251
GCGCCGGA	0.432
AAAGGTTC	-0.0266
TCAGTGCA	-0.21
AAGGGAAG	-0.153
CTTGGTCC	-0.0131
CACAACAG	-0.244
AGAATACG	-0.017
GAACACAC	0.00508
CAGCAGGA	-0.214
AACCGGGA	0.241
CAATGGTC	-0.19
CAAATCCG	0.381
AAGGTGTA	-0.0554

Sequence	PBM E-score
CACTGCCA	-0.217
AAAGCATT	-0.217
CCATGCAA	0.114
GCGACTAC	0.0244
ACAACTCC	0.295
ACTGGCTG	-0.0116
GGGGGACC	-0.128
CGATCTAA	-0.0808
AACCCAGT	-0.0306
AGAAGTTC	-0.183
CTATACGC	-0.0641
CTGCTTCC	0.0372
ATAATGGC	-0.0395
GTCGAAAA	-0.102
AATGCTCC	0.153
AGCCTGGG	-0.00528
CAACCTAG	-0.24
CAGTCCCA	-0.104
ATCCGGGG	0.414
AATTAACA	-0.128
TGGCGACA	-0.197
TAAAACTA	-0.0762
CCTTAACC	-0.267
AATTGACG	0.0788
CGGATACA	0.297

Sequence	PBM E-score
GATTAGGC	-0.103
ACGATTAC	-0.192
CATGGCCA	-0.203
CCAGAGCA	-0.0996
AGATCCTG	-0.133
CAGTACCA	-0.238
GTTACGCA	-0.0981
CCGCATCA	0.174
CAGTGGAA	-0.144
ATGACACA	-0.149
CTTCCTCA	-0.0724
AATTGATA	-0.0338
ATGATCGC	0.0153
CCCCTCTC	-0.116
AGCGGGAA	0.182
CGAGACCA	-0.0366
CGTCACAA	0.0364
ATTCGTAA	-0.0993
ATCATGTA	-0.269
GATACCGC	0.18
CAGTTAGA	-0.139
GCCTGAGA	-0.066
AAGAACTC	-0.0203
ATGTCATG	-0.217
GCAAGCAC	-0.311

Sequence	PBM E-score
TATACACA	-0.261
ATACGCTG	-0.0284
TCCTATCA	-0.135
ATTCTATA	-0.108
CATGGGCG	0.0656
CTAAGGTC	-0.177
GGACGAGA	0.0381
CTACAAGC	-0.132
GGTAGCGA	-0.00554
CTCGTTCC	0.165
ACAAAATG	0.0866
AACTGGCG	0.0285
CTACCTAG	-0.234
AAGGTAAT	0.0825
CGAGGGAC	-0.22
GATGTCGA	-0.0459
CTAAGCCC	0.0902
AATATTTC	0.139
AGTTTGCG	0.0593

Reference: the supplement of paper PMC3334620
